The campaign covered roughly 220,000 compounds. About 16,000 (7.3%) were called active. The inconclusive results got no clear call from the source; some entries with a clear call stand among them for comparison. The call rests on the fitted dose curve; in most records, active means well fitted inhibition curve with a large enough effect (not every such curve was filed as active); inconclusive means small, poorly fitted or top-dose-only effect, or another doubt; inactive means no such curve, though single readings can be large or run the other way. Potencies of inconclusive entries are left out as doubtful fits.
biological target: Aldehyde dehydrogenase 1A1 (Homo sapiens) (UniProt P00352); assay: qHTS Assay for Inhibitors of Aldehyde Dehydrogenase 1 (ALDH1A1); settings: Purified ALDH1A1, NADH fluorescence, propionaldehyde substrate; series mostly up to 75.3 µM
Potency means the concentration at half of the fitted maximal effect; tags describe the fitted curve by direction and shape.

Chain of UniProt P00352 (P00352 whole entry, looked up): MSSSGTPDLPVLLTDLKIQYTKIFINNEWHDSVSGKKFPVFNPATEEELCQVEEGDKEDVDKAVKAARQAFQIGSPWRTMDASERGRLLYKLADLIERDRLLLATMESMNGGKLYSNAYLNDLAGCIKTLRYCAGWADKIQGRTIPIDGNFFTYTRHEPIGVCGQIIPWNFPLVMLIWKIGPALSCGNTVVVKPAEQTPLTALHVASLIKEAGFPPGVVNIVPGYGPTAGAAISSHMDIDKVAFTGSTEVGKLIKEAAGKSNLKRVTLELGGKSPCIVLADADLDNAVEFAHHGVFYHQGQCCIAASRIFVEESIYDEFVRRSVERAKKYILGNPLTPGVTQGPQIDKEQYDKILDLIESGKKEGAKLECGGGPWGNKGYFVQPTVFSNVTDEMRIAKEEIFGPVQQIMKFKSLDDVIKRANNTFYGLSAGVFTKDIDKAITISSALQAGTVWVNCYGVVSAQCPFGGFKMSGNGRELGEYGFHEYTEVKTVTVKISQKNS

SMILES	Potency
COc1ccc(CSCCN)cc1Cl	inactive
COC(=O)c1[nH]c(=O)c2ccccc2c1OCc1ccccc1	inconclusive [inhibitor, single point]
COC(=O)C1C(c2ccc(N(C)C)cc2)C(C(=O)OC)S(=O)(=O)CS1(=O)=O (stereo not given)	active: 10 µM
CC1CCC2(CC1)NC(=S)N(c1ccccc1)N2 (stereo not given)	active: 15.8 µM
CNc1cc(C(F)(F)F)nc(-c2ccccn2)n1	inactive
Cc1ccc(-c2cc(C(=O)Nc3ccc(S(=O)(=O)Nc4onc(C)c4C)cc3)c3ccccc3n2)cc1	inconclusive [inhibitor, single point]
Cc1ccc(-c2csc3ncn(CC(=O)N4CCOCC4)c(=O)c23)cc1C	inconclusive [inhibitor, single point]
COc1cc(-c2cc(-c3ccccc3)nc(SCC(=O)Nc3nccs3)c2C#N)cc(OC)c1OC	inconclusive [inhibitor, single point]
Clc1cccc(Nc2ncnc3c2cnn3-c2ccccc2)c1	inconclusive [inhibitor, single point]
CCc1c(C)sc(NC(=S)N2CC(C)OC(C)C2)c1C(=O)OC (stereo not given)	inconclusive [inhibitor, partial curve, poor fit]
Cc1cc(C)cc(-n2c(=O)c3sccc3n(CC(=O)NCc3ccco3)c2=O)c1	inactive
CN(C)c1nc(NC(C)(C)C)nc(SCC(=O)Nc2ccccc2)n1	inconclusive [inhibitor, single point]
Cc1cnc(NC(=O)c2ccc(OCC3CCCO3)cc2)s1 (stereo not given)	inconclusive [inhibitor, single point]
Cc1ccc(/C=C2\CCC3=C2OC(N)=C(C#N)C3c2ccc(C)cc2)cc1 (stereo not given)	inconclusive [inhibitor, partial curve]
CC(=O)Nc1ccc(N/C=C(\C=O)c2nc3ccccc3o2)cc1	inconclusive [inhibitor, single point]
Clc1ccc(OCCCn2cncn2)cc1Cl	active: 11.2 µM
CCSc1nc(-c2ccc(OC)cc2)ccc1C#N	inconclusive [inhibitor, partial curve]
Cc1cccc(N2CCN(Cc3oc(CO)cc(=O)c3O)CC2)c1C	inconclusive [inhibitor, single point]
CCOC(=O)COc1ccc(C(=O)Nc2cccc(Cl)c2C)cc1	inactive
CCCCN(CCCNC(=O)C1CCN(S(=O)(=O)N2CCOCC2)CC1)c1ccccc1	inconclusive [inhibitor, partial curve]
CN1CCN(C(=O)C2=C[C@H](c3csc4ccccc34)C[C@H](OCCCCO)O2)CC1	inactive
COc1ccc(NC(=O)Cc2coc3cc(C)c(C(C)C)cc23)cc1S(=O)(=O)N1CCOCC1	active: 22.4 µM
COc1ccc(/C=N/NC(=O)c2ccn[nH]2)cc1COc1ccc([N+](=O)[O-])c(C)c1	inconclusive [inhibitor, partial curve]

SMILES	Potency
Cn1ncc(Br)c1C(=O)OCC(=O)Nc1nc(-c2ccccc2)cs1	inactive
N#Cc1c(SCC(N)=O)nc2c(c1-c1ccc(O)cc1)CCCC2	active: 7.08 µM
Fc1cccc(Cl)c1/C=N/n1c(-c2cccnc2)n[nH]c1=S	inconclusive [inhibitor, full curve, poor fit]
Cc1cc2c(cc(C(=O)OC(C(=O)NCc3ccco3)C(C)C)n2C)o1 (stereo not given)	inconclusive [inhibitor, single point]
OC(COc1ccc2c(c1)CCC2)CN1CCN(c2cccc(Cl)c2)CC1 (stereo not given)	inconclusive [inhibitor, single point]
Cc1nc(N)sc1-c1csc(Nc2ccccc2)n1	active: 17.8 µM
O=C(Nc1ccccc1)Nc1cc([N+](=O)[O-])ccc1F	inactive
O=C(C[C@@H]1C=Cc2ccccc2N1C(=O)c1ccccc1)c1ccccc1	inconclusive [inhibitor, partial curve]
CCn1c(Cc2ccccc2)nnc1SCC(=O)Nc1ccc(N)cc1	inconclusive [inhibitor, single point]
CC(C)c1nc(SCC(=O)Nc2ccc(N(C)C)cc2)c2ccccc2n1	inconclusive [inhibitor, single point]
CCNc1ncc2nc(-c3cc(F)cc(F)c3)c(=O)n(C3CC3)c2n1	inconclusive [inhibitor, full curve]
COC(=O)c1cc(=O)nc2scc(C)n12	active: 22.4 µM
COC(=O)[C@@]1(Cc2ccccc2)[C@H]2c3cc(C(=O)N4CCCC4)n(Cc4ccc(O)c(OC)c4)c3C[C@H]2CN1C(=O)c1ccccc1	inconclusive [inhibitor, single point]
C/C(=N\NC(=S)NC1CCCCC1)c1c(F)cccc1F	inconclusive [inhibitor, single point]
COc1ccccc1OCC(=O)N/N=C/C=C/c1ccc([N+](=O)[O-])o1	inactive
FC(F)Sc1ccc(NC(=S)NC2CCCCC2)cc1	inconclusive [inhibitor, partial curve]
CCn1c(SCC(=O)Nc2ccccc2)nnc1-c1ccc(S(=O)(=O)N2CCOCC2)cc1	inconclusive [inhibitor, single point]
COc1ccc(C(=O)NC(=S)N2CCC(C)CC2)cc1	inconclusive [inhibitor, single point]
COc1ccc(CNC(=O)COC(=O)c2cc(-c3ccc(Cl)s3)nc3ccccc23)cc1	inconclusive [inhibitor, partial curve]
CCC(Oc1ccccc1)C(=O)Nc1ccc(-c2nnc(-c3ccco3)o2)cc1 (stereo not given)	inconclusive [inhibitor, single point]
Cc1ccc(NC(=O)/C(=C\c2ccc([N+](=O)[O-])cc2)NC(=O)c2ccccc2)cc1	inactive
COc1cccc([C@@H]2Oc3ccc(Br)cc3C(=O)[C@H]2OC(=O)N[C@H]2CCCc3ccccc32)c1	inconclusive [inhibitor, single point]
